# Results reported in PubChem BioAssay AID248 (DTP/NCI, 2004).
# Inconclusive results and toxic doses are left out. The source holds more than one record for some entries. This list holds those alone. An entry can have further records. The records of an entry repeat one measurement in other runs, samples, wells, individuals or studies.
# System: L1210 leukemia ip in BDF1 mice, survival T/C
# Assay: NCI In Vivo Anticancer Drug Screen. Data for tumor model L1210 Leukemia (intraperitoneal) in B6D2F1 (BDF1) mice
# Settings: endpoint: mean survival time, higher = longer survival
SMILES,"T/C (dose: 600.0 mg/kg/injection, schedule: Q01DX009 (ip), vehicle: saline)","T/C (dose: 40.0 mg/kg/injection, schedule: Q04DX003 (ip), vehicle: Klucel (hydroxypropylcellulose) (HPC))"
CC1(COCCOCC2(C)CO2)CO1 (configuration not stated),123 % of control and 167 % of control,–
CS(=O)(=O)OCCN(CCOS(C)(=O)=O)c1ccc(C=Nc2cccc(Cl)c2)cc1,–,120 % of control and 158 % of control
